# From PMC4336329 (PLoS ONE, 2015)
# Hit rate of the full screen: of about 310,000 compounds, about 14,000 (4.5%) showed an effect of 50% or more. Effects have a minus sign here. This is one part of the list.
# Target: human ether-à-go-go-related gene (hERG) potassium channel (human, UniProt Q12809)
# Assay: primary screen, population patch clamp on CHO cells stably expressing hERG
# 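Also: peak tail current of the secondary pulse compared with the same well before compound.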
# Sequence of human ether-à-go-go-related gene (hERG) potassium channel (Q12809 whole entry, looked up): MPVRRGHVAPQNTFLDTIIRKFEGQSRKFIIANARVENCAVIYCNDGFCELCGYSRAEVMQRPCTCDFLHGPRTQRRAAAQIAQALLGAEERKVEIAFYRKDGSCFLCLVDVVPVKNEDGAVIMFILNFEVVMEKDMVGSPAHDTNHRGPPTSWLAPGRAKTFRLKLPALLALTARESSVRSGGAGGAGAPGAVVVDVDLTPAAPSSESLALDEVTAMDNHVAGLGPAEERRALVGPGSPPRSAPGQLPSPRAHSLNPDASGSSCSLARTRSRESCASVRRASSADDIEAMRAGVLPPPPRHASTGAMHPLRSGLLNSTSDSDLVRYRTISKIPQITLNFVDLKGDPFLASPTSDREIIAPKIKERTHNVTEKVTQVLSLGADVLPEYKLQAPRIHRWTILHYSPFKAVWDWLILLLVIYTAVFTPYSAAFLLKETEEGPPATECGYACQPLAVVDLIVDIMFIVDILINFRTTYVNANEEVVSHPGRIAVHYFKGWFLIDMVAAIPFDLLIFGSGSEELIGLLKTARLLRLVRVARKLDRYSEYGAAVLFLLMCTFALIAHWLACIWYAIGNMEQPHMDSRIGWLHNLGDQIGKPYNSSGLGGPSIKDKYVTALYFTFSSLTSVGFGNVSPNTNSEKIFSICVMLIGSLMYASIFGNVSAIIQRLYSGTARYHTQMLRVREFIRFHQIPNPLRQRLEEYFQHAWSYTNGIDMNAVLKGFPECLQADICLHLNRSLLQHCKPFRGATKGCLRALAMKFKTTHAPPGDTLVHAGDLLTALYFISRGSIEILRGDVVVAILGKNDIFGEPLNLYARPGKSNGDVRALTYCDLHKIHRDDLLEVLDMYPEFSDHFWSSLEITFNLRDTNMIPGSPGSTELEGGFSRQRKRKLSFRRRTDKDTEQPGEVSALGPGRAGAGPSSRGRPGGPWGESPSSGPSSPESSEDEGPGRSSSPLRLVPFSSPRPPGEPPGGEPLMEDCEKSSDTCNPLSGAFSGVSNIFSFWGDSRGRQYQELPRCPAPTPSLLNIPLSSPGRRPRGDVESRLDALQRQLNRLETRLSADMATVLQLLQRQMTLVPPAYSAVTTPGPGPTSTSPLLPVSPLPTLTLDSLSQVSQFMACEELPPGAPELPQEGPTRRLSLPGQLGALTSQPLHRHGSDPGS
row,Structure (SMILES),"hERG current change (%, negative = inhibition) at 10uM"
1,CC1CC(NC(=O)c2cnc3n(c2=O)CCS3)CC(C)(C)C1 (stereo not shown),-2.39%
2,CN(C)C(CNC(=O)c1ccc(OCc2cn3ccccc3n2)cc1)c1ccco1 (stereo not shown),-4.67%
3,COc1ccc(Cl)cc1NC(=O)c1cccc(NC(=O)CCC(=O)O)c1,6.88%
4,Cc1ccc(C(=O)Nc2cc(C)c(OCC(=O)N3CCOCC3)c(C)c2)cc1,-11.3%
5,COc1ccc(C(=O)OCC(=O)NCC2CCCCC2)cc1S(=O)(=O)N1CCCc2ccccc21,10.6%
6,CCOc1cc(S(=O)(=O)NCCCN2CCOCC2)c(C)cc1C,12.4%
7,COc1ccc(C(=O)N(Cc2nc(-c3ccc(C)cc3)no2)C2CCCCC2)cc1OC,-9.71%
8,O=C(C1CCCO1)N1CCN(C(=S)Nc2ccccc2F)CC1 (stereo not shown),-4.83%
9,COc1ccc(-n2nc(C(=O)NCC(=O)NCCCN3CCN(C)CC3)c3ccccc3c2=O)cc1OC,18.9%
10,CSc1nc2c(c(=O)[nH]1)C(c1ccncc1)C(C(=O)OC(C)C)=C(C)N2 (stereo not shown),-0.441%
11,Cc1ccccc1C(=O)OCc1cnc(Cl)s1,12.7%
12,COc1ccc(S(=O)(=O)N2CCCCCC2)cc1NS(=O)(=O)c1cc(C(=O)O)cc(C)c1C,-29.6%
13,CC(=O)c1cccc(NC(=O)CSc2nc(N3CCOCC3)nc(N3CCOCC3)n2)c1,-6.79%
14,CC(C)C(=O)Nc1ccc(NC(=S)NC(=O)c2ccc([N+](=O)[O-])cc2)cc1,-3.42%
15,O=C1c2ccccc2C(Nc2ccccc2F)N1c1cccnc1 (stereo not shown),-15.6%
16,CN(C)c1nc(N/N=C\c2ccc(Cl)c([N+](=O)[O-])c2)nc(Nc2ccc(F)cc2)n1,-3.19%
17,CCOC(=O)/C(C#N)=C/c1c(N2CCN(c3ccccc3)CC2)nc2ccccn2c1=O,-24.5%
18,NP(=O)(OCCCc1ccccc1)c1ccccc1 (stereo not shown),10.9%
19,Cc1ccc2sc(NNC(=O)c3cc(-c4cccs4)nc4ccccc34)nc2c1C,16.3%
20,Cc1cc(NC(=O)CSc2nc3ccccc3c(=O)n2C(C)c2ccccc2)no1 (stereo not shown),2.97%
21,COc1ccc(OCc2nnc(SCc3ccc(C(=O)O)cc3)o2)cc1,14.2%
22,CCOc1ccc(NC(=O)N2CC=C(n3c(=O)[nH]c4ccccc43)CC2)cc1,-8.9%

row,Structure (SMILES),"hERG current change (%, negative = inhibition) at 10uM"
1,COc1ccccc1N1CCN(C(=O)C(=O)c2c[nH]c3ccccc23)CC1,0.156%
2,CCOc1cccc(C(=O)Nc2ccc(N3CCN(S(C)(=O)=O)CC3)cc2)c1,16.9%
3,COc1ccc(CCn2nc(C)c([N+](=O)[O-])c2C)cc1,8%
4,COc1cc(/C=N/NC(=O)c2cccc([N+](=O)[O-])c2)ccc1OCc1ccccc1,4.87%
5,O=C(CCC(=O)c1ccc(F)cc1)Nc1cccc(Br)c1,22%
6,CN(CC(=O)Nc1ccc(OC(F)(F)F)cc1)C(=O)c1ccc(N2CCCC2=O)cc1,-25.9%
7,C=C(C)CNC(=S)NNC(=O)CCn1c2ccc(Cl)cc2c2cc(Cl)ccc21,6.82%
8,O=C(OCC(=O)N(CCc1ccccc1)Cc1ccccc1)c1ccccc1O,-5.6%
9,CC1(NC(=O)CC(c2ccccc2)(c2ccccc2)c2ccccc2)CCN(CCCc2ccccc2)C1=O (stereo not shown),21.4%
10,Brc1ccc(-n2cc(-c3ccccc3)c3c(NN4CCOCC4)ncnc32)cc1,-15.7%
11,CC(OC(=O)c1ccc(O)cc1)C(=O)Nc1cc(C(F)(F)F)ccc1Cl (stereo not shown),-11.2%
12,COc1ccc(Br)cc1S(=O)(=O)n1c([N+](=O)[O-])cnc1C,22.3%
13,COc1ccc(Nc2ccc(C(F)(F)F)cc2[N+](=O)[O-])cn1,17.9%
14,CN(CC(=O)Nc1ccccc1Oc1ccccc1)Cc1ccccc1F.O=C(O)C(=O)O,5.39%
15,CN(C)S(=O)(=O)c1ccc(NC(=O)CSc2ncnc3ccccc23)cc1,-33.9%
16,COC(=O)c1scc(C#N)c1N/N=C(\C#N)S(=O)(=O)c1ccc(Cl)cc1,2.59%
17,O=S(=O)(c1cccc2cccnc12)N(CCO)CCO,22.5%
18,CCCCn1nnnc1SCC(=O)N1CCCC1,17.9%
19,CC(=O)N1c2ccccc2C(C)=CC1(C)C,13.2%
20,CC(C)CSc1nc2ccccc2[nH]1,8.92%
21,CC(Cc1cccnc1)NC(=O)c1ccccc1OC1CCN(S(C)(=O)=O)CC1 (stereo not shown),13.7%
